Two molecules from patent US20240269263A1 (published 2024) can be followed below.

In test [1] the target is T1, human IL-10 Receptor β (human, UniProt Q08334 20-220, limits assumed).
T1 construct: Coated on ELISA plates at 2 µg/mL; also called hIL-10Rβ; hIL-10Rβ subunit
T1 sequence: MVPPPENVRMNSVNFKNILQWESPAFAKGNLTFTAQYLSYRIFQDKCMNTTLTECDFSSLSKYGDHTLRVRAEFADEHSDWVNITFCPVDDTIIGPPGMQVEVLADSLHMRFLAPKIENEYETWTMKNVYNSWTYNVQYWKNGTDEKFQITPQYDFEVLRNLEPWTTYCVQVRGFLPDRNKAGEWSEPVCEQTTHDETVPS
Kind of test: ELISA, receptor subunit coated at 2 µg/mL, fusion protein supernatant, anti-human IgG-HRP detection, A450. In general terms: An ELISA detects its analyte on a solid surface through an enzyme-linked reagent.

The target of test [2] is T2, human IL-10 Receptor α (human, UniProt Q13651 22-235, limits assumed).
T2 construct: Coated on ELISA plates at 2 µg/mL; also called hIL-10Rα; hIL-10Rα subunit
T2 sequence: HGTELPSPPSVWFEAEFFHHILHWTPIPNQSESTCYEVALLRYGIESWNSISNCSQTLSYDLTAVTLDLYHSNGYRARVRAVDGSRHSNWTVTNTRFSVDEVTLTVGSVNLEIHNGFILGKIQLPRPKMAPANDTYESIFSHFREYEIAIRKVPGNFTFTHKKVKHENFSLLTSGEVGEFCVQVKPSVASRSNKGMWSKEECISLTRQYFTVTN
Kind of test: ELISA, receptor subunit coated at 2 µg/mL, fusion protein supernatant, anti-human IgG-HRP detection, A450; compared with hIL-10R BFP-10.

B1: hIL-10R BFP-10 (SEQ ID NO: 534) (Fc fusion)
chain: [gap - human IgG4 Fc with S228P F234A L235A (EU numbers) and a few adjoining residues]GGGGGGGSGGGGSGGGGSKGRDSKPSPACDPMHGALAGIFKELRTTYRSVREALQTKDTVYYVSLFHEQLLQEMLSPVGCRVTNELMQHYLDGVLPRAFHCGYDNATLNALHALSSSLSTLYQHMLKCPALACTGQTPAWTQFLDTEHKLDPWKGTVKATAEMDLLLNYLETFLLQS
notes: Added to the ELISA as supernatant protein
For the molecule B1, the binding result in test [1] is reported as “binds”.

B2: hIL-10R BFP-1 (SEQ ID NO: 522) (Fc fusion)
chain: [gap - human IgG4 Fc with S228P F234A L235A (EU numbers) and a few adjoining residues]GGGGGGGSGGGGSGGGGSSPGQGTQSENSCTHFPGNLPNMLRDLRDAFSRVKTFFQMKDQLDNLLLKESLLEDFKGYLGCQALSEMIQFYLEEVMPQAENQDPDIKAHVNSLGENLKTLRLRLRRCHRFLPCENKSKAVEQVKNAFNKLQEKGIYKAMSEFDIFINYIEAYMTMKIRN
notes: as for B1
For B2, the binding result in test [2] was “binds”.
